From the supplement of paper PMC4166925 come the findings set out here.

± gives the standard deviation of the averaged measurements. The full ranking holds about 33,000 sequences; the median of “E-score (dimensionless, -0.5 to 0.5)” is about -0.049, and the highest 2% start at about 0.37. Some of the results follow.
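Further: 200 nM protein in PBS on universal arrays averaged over duplicate arrays.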

For this test, the system named is T1, PmTbr T-box DNA-binding domain (GST fusion).
T1 sequence: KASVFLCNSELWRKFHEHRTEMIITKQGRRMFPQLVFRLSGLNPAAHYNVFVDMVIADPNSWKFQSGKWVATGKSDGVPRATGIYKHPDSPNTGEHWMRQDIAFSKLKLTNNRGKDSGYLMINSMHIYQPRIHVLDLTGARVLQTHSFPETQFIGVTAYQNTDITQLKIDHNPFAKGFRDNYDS
In words: PBM E-score of 8-mer (E-score (dimensionless, -0.5 to 0.5)); Tbr is Tbrain of the sea star Patiria miniata (Pm) or the sea urchin Strongylocentrotus purpuratus (Sp); higher = stronger binding preference; most listed sequences are background and not binding sites. As to conditions: the construct has about 5 more residues each side. Here is the method: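 Universal protein-binding microarray (Agilent AMADID 016060, 60-bp probes with a 35-bp variable region) incubated with 200 nM GST-fused Patiria miniata Tbr T-box DNA-binding domain (residues 272-466) in PBS pH 7.5. Scored for every ungapped 8-mer (given with its reverse complement) by the Universal PBM Analysis Suite as E-score (modified Wilcoxon-Mann-Whitney enrichment, range -0.5 to 0.5; >0.45 counts as bound) and Z-score of median probe intensity. Two replicate arrays (datasets 1 and 2).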
On to ATTCAAAA, for which the “PBM E-score of 8-mer” value is -0.33 ± 0.11.

On to CGGCGAAC, for which the “PBM E-score of 8-mer” value came to 0.0485 ± 0.017.

Regarding ACGAACTA, the “PBM E-score of 8-mer” value is -0.0663 ± 0.02.

As to CTCTTCAA, the “PBM E-score of 8-mer” value is -0.0317 ± 0.004.

In the case of GATTTTCC, the “PBM E-score of 8-mer” value turned out to be 0.0421 ± 0.019.

Turning to AAACTGAC, the “PBM E-score of 8-mer” value came to 0.0348 ± 0.024.

ACTAATAG: the “PBM E-score of 8-mer” value was 0.0141 ± 0.015.

For the sequence TCGGTCCA, the “PBM E-score of 8-mer” value is -0.365 ± 0.015.

In the case of GTACTGTA, the “PBM E-score of 8-mer” value was -0.238 ± 0.0064.

For ATGGCGAC, the “PBM E-score of 8-mer” value is 0.0973 ± 0.027.

Consider AGCGAAGA, for which the “PBM E-score of 8-mer” value was 0.133 ± 0.047.

Turning to AAGCTCCG, the “PBM E-score of 8-mer” value was -0.199 ± 0.029.

For AAACACAG, the “PBM E-score of 8-mer” value is -0.1523 ± 0.00079.

As to TCGTCAAA, the “PBM E-score of 8-mer” value amounted to 0.0991 ± 0.053.

For CCCGTTAC, the “PBM E-score of 8-mer” value came to 0.0158 ± 0.019.

Turning to CTACGGTA, the “PBM E-score of 8-mer” value is -0.109 ± 0.049.

With CGGGGTGC, the “PBM E-score of 8-mer” value was 0.28 ± 0.024.

As to CTGCTGTA, the “PBM E-score of 8-mer” value is -0.129 ± 0.066.

As to GAGATGTA, the “PBM E-score of 8-mer” value was -0.204 ± 0.084.

Regarding GAAGAAGA, the “PBM E-score of 8-mer” value is -0.259 ± 0.027.

For the sequence CCTGCTTA, the “PBM E-score of 8-mer” value turned out to be 0.0896 ± 0.0013.

Consider AAACTGCT, for which the “PBM E-score of 8-mer” value is 0.147 ± 0.088.

CTTGTTAA: the “PBM E-score of 8-mer” value stood at 0.236 ± 0.09.

For AACTGCCT, the “PBM E-score of 8-mer” value was -0.00639 ± 0.041.

Take ATCCCCTC: the “PBM E-score of 8-mer” value was -0.00477 ± 0.043.

Consider CGTACGAA, for which the “PBM E-score of 8-mer” value was 0.048 ± 0.031.

Regarding AAACTGTC, the “PBM E-score of 8-mer” value is 0.16 ± 0.056.

For ACTTTCTC, the “PBM E-score of 8-mer” value worked out at 0.166 ± 0.13.

On to GTCGATCA, for which the “PBM E-score of 8-mer” value came to 0.00814 ± 0.021.

GCCCGGTA: the “PBM E-score of 8-mer” value is -0.271 ± 0.056.

As to GGTTTCAA, the “PBM E-score of 8-mer” value is -0.126 ± 0.099.

As to ATTCGTTA, the “PBM E-score of 8-mer” value stood at 0.111 ± 0.0073.

For the sequence AATCTTGA, the “PBM E-score of 8-mer” value is -0.0656 ± 0.025.

As for CGTAAATA, the “PBM E-score of 8-mer” value was -0.21 ± 0.062.

Turning to ATTTTCCG, the “PBM E-score of 8-mer” value was -0.111 ± 0.017.

For the sequence ATTGAGCG, the “PBM E-score of 8-mer” value was 0.106 ± 0.022.

On to CGGACTGC, for which the “PBM E-score of 8-mer” value turned out to be 0.0114 ± 0.052.

With AATGCATG, the “PBM E-score of 8-mer” value was -0.16 ± 0.068.

As for CAGTTAAC, the “PBM E-score of 8-mer” value was 0.0644 ± 0.026.

For the sequence GCTGCCCC, the “PBM E-score of 8-mer” value was -0.145 ± 0.0076.

For AGGCATGG, the “PBM E-score of 8-mer” value is -0.326 ± 0.036.

On to ACCCATAA, for which the “PBM E-score of 8-mer” value amounted to 0.0467 ± 0.0045.

On to AGATCGAG, for which the “PBM E-score of 8-mer” value is -0.0944 ± 0.065.

Regarding GCCCCCTA, the “PBM E-score of 8-mer” value was -0.159 ± 0.066.

With AGTGCCTG, the “PBM E-score of 8-mer” value is -0.0756 ± 0.078.

AGCATGCC: the “PBM E-score of 8-mer” value is -0.223 ± 0.041.

Consider GGAAGTCA, for which the “PBM E-score of 8-mer” value was -0.0518 ± 0.11.

As for CGCCCGCA, the “PBM E-score of 8-mer” value is -0.0304 ± 0.051.

Regarding CACGCTAA, the “PBM E-score of 8-mer” value amounted to 0.233 ± 0.028.

On to AATGCTTA, for which the “PBM E-score of 8-mer” value was -0.147 ± 0.038.

In the case of GGGGTCAA, the “PBM E-score of 8-mer” value was -0.137 ± 0.12.

For AAACGAGA, the “PBM E-score of 8-mer” value is -0.232 ± 0.011.

With TGGCAGAA, the “PBM E-score of 8-mer” value was -0.106 ± 0.0079.

In the case of CCCTGTTC, the “PBM E-score of 8-mer” value is -0.123 ± 0.046.

For the sequence GATCCCCA, the “PBM E-score of 8-mer” value worked out at 0.0461 ± 0.12.

CGAATCTA: the “PBM E-score of 8-mer” value was -0.072 ± 0.023.

For the sequence CAACTGGG, the “PBM E-score of 8-mer” value was -0.0457 ± 0.021.

In the case of GAGCACAC, the “PBM E-score of 8-mer” value is -0.0489 ± 0.053.

As for ATCTCGCG, the “PBM E-score of 8-mer” value turned out to be 0.285 ± 0.0059.

With CTTCCAAG, the “PBM E-score of 8-mer” value is -0.215 ± 0.039.

Regarding GTTGCATA, the “PBM E-score of 8-mer” value was -0.0721 ± 0.021.

Take AAGCCATG: the “PBM E-score of 8-mer” value was -0.192 ± 0.026.

Turning to ATGTTAAC, the “PBM E-score of 8-mer” value amounted to 0.161 ± 0.015.

AGTCTCAG: the “PBM E-score of 8-mer” value was -0.179 ± 0.013.

For the sequence ATCTACTA, the “PBM E-score of 8-mer” value is -0.199 ± 0.014.

Take ACTGTTTA: the “PBM E-score of 8-mer” value was 0.0158 ± 0.027.

Take GACACCGA: the “PBM E-score of 8-mer” value turned out to be 0.286 ± 0.024.

AGCAGCTA: the “PBM E-score of 8-mer” value came to 0.0562 ± 0.027.

For the sequence AACATAAG, the “PBM E-score of 8-mer” value is -0.0822 ± 0.0087.

For the sequence CACTCAGG, the “PBM E-score of 8-mer” value was -0.0788 ± 0.04.

For AACCCACC, the “PBM E-score of 8-mer” value was -0.215 ± 0.04.

Consider GATACTTA, for which the “PBM E-score of 8-mer” value was -0.121 ± 0.055.

Take CCAATCGA: the “PBM E-score of 8-mer” value was 0.014 ± 0.016.

AATCGCTA: the “PBM E-score of 8-mer” value worked out at 0.151 ± 0.0042.

Consider CCTAAAGC, for which the “PBM E-score of 8-mer” value was -0.0817 ± 0.036.

As to TGAACTCA, the “PBM E-score of 8-mer” value is -0.0105 ± 0.0096.

On to GCCCTGAA, for which the “PBM E-score of 8-mer” value was -0.142 ± 0.03.

Regarding ATCCATAC, the “PBM E-score of 8-mer” value was -0.386 ± 0.031.

Regarding GGGAGTAC, the “PBM E-score of 8-mer” value was -0.0915 ± 0.074.

For the sequence ACCCAACG, the “PBM E-score of 8-mer” value came to 0.00232 ± 0.017.

Regarding GGGTAGAA, the “PBM E-score of 8-mer” value was -0.0697 ± 0.013.

As to ATGAAATA, the “PBM E-score of 8-mer” value is -0.012 ± 0.042.

As to ATATGGAC, the “PBM E-score of 8-mer” value was -0.188 ± 0.05.

On to CCCATTCC, for which the “PBM E-score of 8-mer” value was -0.145 ± 0.061.

GCAGGCCC: the “PBM E-score of 8-mer” value is -0.257 ± 0.013.

CTTCAACC: the “PBM E-score of 8-mer” value is -0.0697 ± 0.17.
